In this series the test system is ATP. The series is described as follows: switch fluorescence ratio, 500 uM ATP over buffer (Cy3 cluster intensity, sum of 5 cycles each) (fold (ratio)); higher = stronger signal-on switching upon ATP binding; sequences stand for … in TCGTCGGCAGCGTCAGATGTGTATAAGAGACAGTTTTTTTTTTTTTTTTTTTTTTTTT…TC. Particulars: aptamer strand: ATP DNA aptamer (quencher-CACCTGGGGGAGTATTGCGGAGGAAGG + anchor), 100 nM annealed; ATP concentration: 500 uM; one replicate. The method in brief: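 Switching-strand clusters labelled with Cy3 on a modified Illumina MiSeq flow-cell were annealed to 100 nM quencher-labelled ATP aptamer, imaged in selection buffer, and re-imaged after 15 min with 500 uM ATP at 22 °C. This was done over five cycles with NaOH stripping and re-annealing in between. The fluorescence ratio is summed target-cycle over summed buffer-cycle Cy3 intensity per cluster, averaged per switch-domain sequence, excluding clusters outside 100-1000 RFU.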

Values marked as one replicate rest on one cluster of the flow cell; about a third of the high ones do not repeat.
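Also: ATP exposure 15 min at 22 °C before imaging.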

Consider GTTTGGACTA, for which the switch fluorescence ratio was 1.03. Regarding GCCGCCCTTA, the switch fluorescence ratio was 1.08.

Take ATTATGCCAA: the switch fluorescence ratio came to 0.983. As to GATTGCCGTC, the switch fluorescence ratio worked out at 1.02. ATTCTTAAGC: the switch fluorescence ratio is 1.01. Regarding ATCCTGGCCT, the switch fluorescence ratio is 1.09.

In the case of AACGCACCTC, the switch fluorescence ratio was 1.55. CGACAGGCG: the switch fluorescence ratio is 1.04. Take GGAGGGTATA: the switch fluorescence ratio stood at 1.02. With TATTTACTGG, the switch fluorescence ratio was 0.996. Regarding AACCTGCCAA, the switch fluorescence ratio amounted to 1.72. On to GCGGGGGCAC, for which the switch fluorescence ratio came to 0.993. On to CCTACACACG, for which the switch fluorescence ratio came out at 1.59. Under ATCCTAGAAG stands 1.02; under AGTAAAATCT, 0.987.

In the case of TGCTAGTAAC, the switch fluorescence ratio worked out at 1.04. Turning to CCCCGAGCCA, the switch fluorescence ratio worked out at 0.991. Turning to TTTGCGCTGG, the switch fluorescence ratio is 0.997. For TTAAGCCACC, the switch fluorescence ratio was 1.21. In the case of CGTTTCCAGA, the switch fluorescence ratio worked out at 0.982. TGTTTATACG: the switch fluorescence ratio was found to be 0.949. Consider CCTCGACCTC, for which the switch fluorescence ratio is 1.46. Under CTTAGACGTT stands 0.979.

TCAGGGTACG: the switch fluorescence ratio is 0.99. In the case of CAGTTCGCGT, the switch fluorescence ratio came to 1.02. With AAGTATATTA, the switch fluorescence ratio came out at 1.06. In the case of GTTCCAGGTT, the switch fluorescence ratio amounted to 1.06.

With CAAATGGAT, the switch fluorescence ratio came out at 1.05. Take TGGCGGCCTT: the switch fluorescence ratio came out at 0.999.

With CCCCAAAATT, the switch fluorescence ratio was found to be 1.06. With TTATTTTGGA the figure was 0.966; with AACAGCCCTA, 0.987; with AACATCTTTA, 1.01. On to TGACGGCCCC, for which the switch fluorescence ratio came to 1.05. As to ACCTGCTGGA, the switch fluorescence ratio was found to be 1.01. With TTGCTGTAGA the figure was 1.02; with CCTAAACATG, 0.989. Regarding TATTTTGGCT, the switch fluorescence ratio was 0.97. On to CACGACTTTC, for which the switch fluorescence ratio is 1.01. Under CTGAACTCAC stands 1.17; under CAGACCTCCA, 1.11; under CTAAGATCCG, 1. With AATTCAGTGG the figure was 0.946. As to ATAAGTTTGC, the switch fluorescence ratio came to 0.922. With CGACTACGAG, the switch fluorescence ratio was 1.09. With TAGGCCTTAA the figure was 1.04; with GAAGAGATGA, 1.04; with CTTACCAACT, 1.11. Turning to TTGTGTGTG, the switch fluorescence ratio worked out at 0.995. With GGACACGAGT, the switch fluorescence ratio amounted to 1.02. For TCGTCGTCAA, the switch fluorescence ratio is 1.49. As to CGTTTATAG, the switch fluorescence ratio was determined as 1.03. Under GGGCACAATG stands 1.01; under TCATAAAAGT, 1.04; under AGCCATGTAA, 1.01.

As for TAAGCGCGTA, the switch fluorescence ratio came out at 0.967. Take GAATGTAGG: the switch fluorescence ratio stood at 1.02. With AACTGTATCA the figure was 1.07; with ACACTGTAAT, 1.13; with ACTTCGATCG, 1.06.

CCTGCGGCGG: the switch fluorescence ratio is 1.42. In the case of AATGTCTGCG, the switch fluorescence ratio turned out to be 0.954. With CCTTCGAGCA, the switch fluorescence ratio amounted to 3.22. As for CAGCGATCGT, the switch fluorescence ratio amounted to 1.03. Regarding GATCGACAGG, the switch fluorescence ratio was 0.976.

On to ACCTTAGATT, for which the switch fluorescence ratio is 1.01. AGCTTCAGGC: the switch fluorescence ratio came out at 1. Under CATCGACCTA stands 1.01; under AAATTAGTGA, 0.992; under ATACTGCCTT, 1.09. In the case of TAGATTGCG, the switch fluorescence ratio was 1.05. Take CTCACGACCG: the switch fluorescence ratio was 1.04.

In the case of TTGGACTT, the switch fluorescence ratio was 1.01.

With GTACCGAAGT, the switch fluorescence ratio was found to be 1.04. With TCGTTCTAGG the figure was 1.02.

With TCCACGGGCT, the switch fluorescence ratio worked out at 0.981. As to CGTTATTGCG, the switch fluorescence ratio was found to be 1.02. On to GGTGTAATTA, for which the switch fluorescence ratio was 0.986. Take GGACGGGTTC: the switch fluorescence ratio was found to be 1.02. In the case of ACTCATTAGC, the switch fluorescence ratio was found to be 1.02.

For the sequence CTGTAGATTC, the switch fluorescence ratio is 1.03. In the case of AAAGGGTCGG, the switch fluorescence ratio amounted to 1.02.

In the case of CGAAGACTTG, the switch fluorescence ratio stood at 0.99. In the case of CAACGCTTGC, the switch fluorescence ratio amounted to 2.63. With TCATAGTTCG the figure was 0.993. Under TGTGCACCCG stands 1.02; under GTACTGTGTC, 1.03; under CTCCGTCGGT, 3.48.

Turning to AATCATTCTT, the switch fluorescence ratio was 1.01. With GCCTTAATGG the figure was 0.96; with AGAGCAAACA, 1.13.

For the sequence CTATGAGTTA, the switch fluorescence ratio amounted to 1.02. AGTCCTCTGA: the switch fluorescence ratio came to 1.03. In the case of ATCCCTATTT, the switch fluorescence ratio is 1.02.

For CTGCGAGAAC, the switch fluorescence ratio is 1.19. As for CGGAGAACTG, the switch fluorescence ratio stood at 1.11. Turning to ATTTGACGCT, the switch fluorescence ratio was determined as 0.986. As for ACCTCTCAGT, the switch fluorescence ratio was determined as 1.04. Take AAAAAGCTCT: the switch fluorescence ratio amounted to 1.01. TGTTACAAGC: the switch fluorescence ratio was 1.06.

For the sequence CGGGCGACTG, the switch fluorescence ratio was 1.02.

Take CTTAGAGTGT: the switch fluorescence ratio turned out to be 1.01. With TATACAGCAG, the switch fluorescence ratio turned out to be 1.

Turning to CTAAGAACAT, the switch fluorescence ratio was found to be 1.02. On to CCAAGGTTAG, for which the switch fluorescence ratio is 0.997. With TTATCTAGGC the figure was 0.965. With TTGTTTGAGT, the switch fluorescence ratio turned out to be 1.03. On to GGCGGCACCG, for which the switch fluorescence ratio came to 1.06.

As for CATACGACCT, the switch fluorescence ratio amounted to 1.59. As for CCTTTTGGTT, the switch fluorescence ratio came out at 1.02.

As for TTAGGATTTA, the switch fluorescence ratio worked out at 0.979. For the sequence TGGGGGGTAA, the switch fluorescence ratio stood at 0.943.

Take GCCCAGGATT: the switch fluorescence ratio turned out to be 1.15. With AAGTTTATC the figure was 1.01. With AACGTGACTG the figure was 1.11; with ACCCTAGTCG, 1.04. CAGCTGAGA: the switch fluorescence ratio was 1.01. Regarding GATAGATGG, the switch fluorescence ratio was 0.98. With TTCTTGCGAA, the switch fluorescence ratio is 1.02. Under TGAATAATTG stands 0.944.

For the origin of these results see the supplement of paper PMC10126150.
